Results published in the supplement of paper PMC4967469.

Key:
Experiment in all cases: Viability of human cancer cell lines after 72 h of drug (GDSC screen)
Mitomycin C = compound: CO[C@@]12[C@H](COC(N)=O)C3=C(C(=O)C(C)=C(N)C3=O)N1C[C@@H]1N[C@@H]12 [Mitomycin C]; details: top dose 16 µM
Description: (§1)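 Human cancer cell lines in 384-well plates, medium with 10% serum, drug for 72 h over a 256-fold dose range (nine 2-fold or five 4-fold steps up to the top dose). Adherent lines were fixed and stained with the nucleic acid dye Syto60, suspension lines read with resazurin; signal relative to control wells, capped at 0 and 100%. One two-parameter sigmoid per drug and line, fitted in a mixed model over all curves with the slope shared within a line.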

IOX2 = compound: O=C(O)CNC(=O)c1c(O)c2ccccc2n(Cc2ccccc2)c1=O [IOX2]; details: top dose 0.1 µM; top dose inferred
Description: as §1

Bosutinib = compound: COc1cc(Nc2c(C#N)cnc3cc(OCCCN4CCN(C)CC4)c(OC)cc23)c(Cl)cc1Cl [Bosutinib]; details: top dose 2 µM
Description: as §1

Midostaurin = compound: CO[C@@H]1[C@H](N(C)C(=O)c2ccccc2)C[C@H]2O[C@]1(C)n1c3ccccc3c3c4c(c5c6ccccc6n2c5c31)C(=O)NC4 [Midostaurin]; details: top dose 0.512 µM; top dose inferred
Description: as §1

NVP-BHG712 = compound: Cc1ccc(C(=O)Nc2cccc(C(F)(F)F)c2)cc1Nc1nc(-c2cccnc2)nc2c1cnn2C [NVP-BHG712]; details: top dose 10.24 µM; top dose inferred
Description: as §1

| Cell Line | AUC (Mitomycin C) | IC50 (Mitomycin C) | AUC (IOX2) | IC50 (IOX2) | AUC (Bosutinib) | IC50 (Bosutinib) | AUC (Midostaurin) | IC50 (Midostaurin) | AUC (NVP-BHG712) | IC50 (NVP-BHG712) |
| --- | --- | --- | --- | --- | --- | --- | --- | --- | --- | --- |
| PL4 (pancreas, adherent) | 0.704 | 3830 nM | 0.985 | > 100 nM | 0.987 | > 2000 nM | 0.902 | > 512 nM | 0.933 | > 10200 nM |
| RCM-1 (large intestine, adherent) | 0.508 | 1050 nM | 0.976 | > 100 nM | 0.934 | > 2000 nM | 0.923 | > 512 nM | 0.964 | > 10200 nM |
| RERF-LC-KJ (lung adenocarcinoma, adherent) | 0.453 | 743 nM | 0.975 | > 100 nM | 0.891 | > 2000 nM | 0.898 | > 512 nM | 0.949 | > 10200 nM |
| RERF-LC-MS (lung adenocarcinoma, adherent) | 0.526 | 1180 nM | 0.985 | > 100 nM | 0.971 | > 2000 nM | 0.951 | > 512 nM | 0.974 | > 10200 nM |
| RERF-LC-Sq1 (lung squamous cell carcinoma, adherent) | 0.616 | 2430 nM | 0.976 | > 100 nM | 0.796 | 1490 nM | 0.963 | > 512 nM | 0.944 | > 10200 nM |
| RH-41 (rhabdomyosarcoma, adherent) | 0.615 | 1960 nM | 0.99 | > 100 nM | 0.978 | > 2000 nM | 0.95 | > 512 nM | 0.988 | > 10200 nM |
| RKN (ovary, adherent) | 0.733 | 4830 nM | 0.971 | > 100 nM | 0.905 | > 2000 nM | 0.935 | > 512 nM | 0.827 | 6750 nM |
| RMG-I (ovary, adherent) | 0.68 | 3490 nM | 0.981 | > 100 nM | 0.956 | > 2000 nM | 0.907 | > 512 nM | 0.792 | 5520 nM |
| RO82-W-1 (thyroid, adherent) | 0.817 | 12300 nM | 0.965 | > 100 nM | 0.878 | > 2000 nM | 0.903 | > 512 nM | 0.965 | > 10200 nM |
| RPMI-2650 (head and neck, adherent) | 0.247 | 174 nM | 0.972 | > 100 nM | 0.939 | > 2000 nM | 0.931 | > 512 nM | 0.925 | > 10200 nM |
| RPMI-7951 (melanoma, adherent) | 0.235 | 175 nM | 0.927 | > 100 nM | 0.957 | > 2000 nM | 0.911 | > 512 nM | 0.901 | > 10200 nM |
| RT4 (bladder, adherent) | 0.563 | 1500 nM | 0.974 | > 100 nM | 0.986 | > 2000 nM | 0.946 | > 512 nM | 0.677 | 2050 nM |
| RVH-421 (melanoma, adherent) | 0.434 | 617 nM | 0.971 | > 100 nM | 0.917 | > 2000 nM | 0.971 | > 512 nM | 0.722 | 3510 nM |
| RXF393 (kidney, adherent) | 0.588 | 1910 nM | 0.96 | > 100 nM | 0.897 | > 2000 nM | 0.823 | 472 nM | 0.822 | 9300 nM |
| SAS (head and neck, adherent) | 0.417 | 577 nM | 0.974 | > 100 nM | 0.891 | > 2000 nM | 0.984 | > 512 nM | 0.897 | > 10200 nM |
| SBC-3 (small cell lung carcinoma, adherent) | 0.189 | 133 nM | 0.987 | > 100 nM | 0.989 | > 2000 nM | 0.787 | 200 nM | 0.884 | 9310 nM |
| SBC-5 (small cell lung carcinoma, adherent) | 0.055 | < 62.5 nM | 0.973 | > 100 nM | 0.975 | > 2000 nM | 0.88 | 362 nM | 0.946 | > 10200 nM |
| SCC-4 (head and neck, adherent) | 0.359 | 377 nM | 0.972 | > 100 nM | 0.915 | > 2000 nM | 0.807 | 323 nM | 0.943 | > 10200 nM |
| SCC-9 (head and neck, adherent) | 0.709 | 4650 nM | 0.924 | > 100 nM | 0.954 | > 2000 nM | 0.864 | > 512 nM | 0.851 | > 10200 nM |
| SCC-25 (head and neck, adherent) | 0.458 | 758 nM | 0.982 | > 100 nM | 0.936 | > 2000 nM | 0.91 | > 512 nM | 0.894 | > 10200 nM |
| SISO (cervix, adherent) | 0.039 | < 62.5 nM | 0.987 | > 100 nM | 0.944 | > 2000 nM | 0.855 | 383 nM | 0.968 | > 10200 nM |
| SJRH30 (rhabdomyosarcoma, adherent) | 0.584 | 1710 nM | 0.984 | > 100 nM | 0.977 | > 2000 nM | 0.926 | > 512 nM | 0.986 | > 10200 nM |
| SJSA-1 (bone, adherent) | 0.23 | 146 nM | 0.974 | > 100 nM | 0.97 | > 2000 nM | 0.955 | > 512 nM | 0.908 | > 10200 nM |
| SK-HEP-1 (liver, adherent) | 0.432 | 661 nM | 0.987 | > 100 nM | 0.879 | 1820 nM | 0.882 | 480 nM | 0.963 | > 10200 nM |
| SK-MEL-3 (melanoma, adherent) | 0.439 | 662 nM | 0.981 | > 100 nM | 0.984 | > 2000 nM | 0.917 | > 512 nM | 0.808 | 6330 nM |

Lines with a small IC50 respond at low doses; a limit (>, <) means that the fit lies beyond the doses tested. AUC, from the same fit, is the share of area under the viability curve across the 256-fold dose range: 1 means no effect, lower means more sensitive. For some of these results: Any top dose called inferred was calculated from the reported fits.
